Reference: the supplement of paper PMC9446081
Among all 39,000 compounds or so, about 220 (0.56%) showed activity. The list shows a part of the results.
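Further: static incubation at 37 °C against the wild-type strain, values averaged over two biological replicates.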

These compounds were tested on Escherichia coli K-12 BW25113 (assay: relative growth (OD600 normalised to plate interquartile mean) (fraction); higher = less growth inhibition, active = 0.2 or less). Settings: 50 µM; LB; incubation time: overnight (16-24 h).
With `C[C@H]1CCCCO[C@H](CN(C)C(=O)NC2CCCCC2)[C@@H](C)CN([C@@H](C)CO)C(=O)c2cc(NC(=O)Cc3ccccc3)ccc2O1` the relative growth was inactive: 0.987. `C[C@H](CO)N1C[C@H](C)[C@H](CN(C)S(=O)(=O)c2ccc(F)cc2)Oc2ccc(NS(=O)(=O)c3ccccc3)cc2CC1=O` was tested, and the relative growth was inactive: 1.02. In the case of `COc1ccc(S(=O)(=O)Nc2cccc3c2O[C@@H](CN(C)CC2CC2)[C@H](C)CN([C@@H](C)CO)C3=O)cc1`, the relative growth is reported as inactive: 0.992. With `C[C@@H]1CN([C@@H](C)CO)C(=O)CCCn2cc(nn2)CO[C@H]1CN(C)C(=O)Nc1ccnc(N2CCOCC2)c1` the relative growth was inactive: 0.969. For `C[C@H]1CN([C@@H](C)CO)C(=O)c2cc(NC(=O)Nc3cccc4ccccc34)ccc2O[C@@H]1CN(C)C(=O)Nc1ccc(C(F)(F)F)cc1`, the relative growth was inactive: 1.02. For `CCOC(=O)Cc1csc(/C(=N/O)C(N)=O)n1`, the relative growth was inactive: 1.06. In the case of `C[C@H](CO)N1C[C@H](C)[C@H](CN(C)S(=O)(=O)c2cn(C)cn2)Oc2ccc(NC(=O)NC3CCCCC3)cc2C1=O`, the relative growth is reported as inactive: 0.982. In the case of `O=C(ON1C(=O)CCC1=O)c1ccccc1`, the relative growth is reported as inactive: 0.986. In the case of `Cn1nnc2c(Cl)ncnc21`, the relative growth is reported as inactive: 0.981. For `CC(C)(C)[S@](=O)N1Cc2cc(C(=O)NCc3ccncc3)nc(-c3cccc(-c4cccc(C#N)c4)c3)c2[C@@H]1CCO`, the relative growth was inactive: 1. `C[C@H]1CN([C@@H](C)CO)C(=O)c2cc(NC(=O)Nc3ccc4c(c3)OCO4)ccc2O[C@H]1CN(C)Cc1ccc(-c2ccccc2)cc1` was tested, and the relative growth was inactive: 0.981. For `COc1ccc(NC(=O)N[C@@H]2CC[C@H](CCNC(=O)CN3CCOCC3)O[C@H]2CO)cc1`, the relative growth was inactive: 1.01. In the case of `C[C@@H]1CCCCO[C@H](CN(C)S(=O)(=O)c2ccc(Cl)cc2)[C@H](C)CN([C@H](C)CO)C(=O)c2cc(NS(=O)(=O)c3ccc(F)cc3)ccc2O1`, the relative growth is reported as inactive: 1.04. With `C[C@@H]1CN([C@H](C)CO)C(=O)c2cc(NC(=O)c3ccccc3)ccc2O[C@@H](C)CCCCO[C@H]1CN(C)C(=O)Nc1ccccc1` the relative growth was inactive: 1. With `C[C@H](CO)N1C[C@H](C)[C@H](CN(C)C(=O)Nc2ccc3c(c2)OCO3)Oc2ccc(NC(=O)Nc3cccc4ccccc34)cc2C1=O` the relative growth was inactive: 1.02. With `O=C(C1CC1)N1CCCN(C(=O)C2CC2)CC1` the relative growth was inactive: 0.998. `COc1ccc([Si](C)(C)[C@@H]2[C@@H](CCn3cc([C@H](O)c4ccccc4)nn3)O[C@]3(C(=O)N(C)c4c(Br)cc(C)cc43)[C@H]2C)cc1` was tested, and the relative growth was inactive: 1.01. For `COC(=O)C[C@@H]1C(=O)NCCN1C(=O)NS(=O)(=O)c1ccc(C)cc1`, the relative growth was inactive: 0.886. With `Cc1noc(C)c1NC(=O)Nc1ccc2c(c1)C(=O)N([C@H](C)CO)C[C@H](C)[C@H](CN(C)S(=O)(=O)c1cn(C)cn1)O2` the relative growth was inactive: 1. `COCC#Cc1cnc2c(c1)C(=O)N([C@H](C)CO)C[C@@H](C)[C@H](CN(C)C(=O)CN1CCOCC1)O2` was tested, and the relative growth was inactive: 1.02. For `C[C@@H]1CN([C@H](C)CO)C(=O)c2cc(NC(=O)Nc3ccc(C(F)(F)F)cc3)ccc2O[C@@H]1CN(C)S(=O)(=O)c1ccc(F)cc1`, the relative growth was inactive: 1.03. In the case of `O=c1nc[nH]c2n[nH]cc12`, the relative growth is reported as inactive: 1.03. With `C=CCN(Cc1ccccc1)C(=O)[C@@H]1N(CCOCCO)C(=O)[C@@H]2[C@H](C(=O)O)[C@@H]3C=C[C@@]21O3` the relative growth was inactive: 1.03. With `C[C@H]1CN([C@@H](C)CO)C(=O)c2cc(NC(=O)Cn3cnnn3)ccc2O[C@H]1CN(C)S(=O)(=O)c1cccs1` the relative growth was inactive: 0.979. In the case of `COc1ccc2c3c(n(c2c1)C)[C@@H](CO)N(C[C@]13CN(C1)C(=O)CN1CCOCC1)C(=O)Nc1ccc(cc1)F`, the relative growth is reported as inactive: 0.977. For `CCC(=O)Nc1ccc2c(c1)C(=O)N(C)C[C@H](OC)[C@H](C)CN(C(=O)CN1CCOCC1)[C@H](C)CO2`, the relative growth was inactive: 0.974. In the case of `C[C@@H]1CN([C@@H](C)CO)C(=O)Cc2cc(NC(=O)Nc3ccc(C(F)(F)F)cc3)ccc2O[C@H]1CN(C)Cc1ccc2c(c1)OCO2`, the relative growth is reported as inactive: 1.04. `C[C@@H]1CN([C@@H](C)CO)C(=O)Cc2cc(NC(=O)Nc3cccc4ccccc34)ccc2O[C@@H]1CN(C)Cc1ccc2c(c1)OCO2` was tested, and the relative growth was inactive: 1.01. `C[C@@H]1CN([C@@H](C)CO)C(=O)c2cc(NC(=O)CCC(F)(F)F)ccc2O[C@H]1CN(C)Cc1ccc(Oc2ccccc2)cc1` was tested, and the relative growth was inactive: 1.01. `COc1ccc(CN(C)C[C@H]2OCCCC[C@H](C)Oc3ccc(NC(=O)NC4CCCCC4)cc3C(=O)N([C@@H](C)CO)C[C@H]2C)cc1` was tested, and the relative growth was inactive: 1.01. With `C[C@H]1CN([C@@H](C)CO)C(=O)c2cc(NC(=O)NC3CCCCC3)ccc2O[C@@H]1CN(C)Cc1ccc(Cl)c(Cl)c1` the relative growth was inactive: 1.02. `C[C@H](CO)N1C[C@H](C)[C@@H](CN(C)Cc2ccc(Cl)c(Cl)c2)Oc2c(NC(=O)Nc3ccc(F)cc3)cccc2C1=O` was tested, and the relative growth was inactive: 0.995. With `C[C@@H]1CCCCO[C@H](CN(C)S(=O)(=O)c2ccc(Cl)cc2)[C@H](C)CN([C@H](C)CO)C(=O)c2cc(NC(=O)c3ccncc3)ccc2O1` the relative growth was inactive: 1.01. `C[C@H](CO)N1C[C@H](C)[C@@H](CN(C)Cc2ccc(C(F)(F)F)cc2)Oc2ccc(NS(=O)(=O)c3ccc(Cl)cc3)cc2C1=O` was tested, and the relative growth was inactive: 1.02. For `C[C@H](NC(=O)N(C)C[C@@H]1OCc2ccccc2-c2ccccc2C(=O)N([C@H](C)CO)C[C@@H]1C)c1ccccc1`, the relative growth was inactive: 1.03. In the case of `CC(C)[Si]1(C(C)C)OCc2cc(-c3ccc(-c4ccc(Cl)c(Cl)c4)o3)nc(-c3ccccc3)c21`, the relative growth is reported as inactive: 0.957. `CCNC(=O)C[C@@H]1CC[C@@H](NC(=O)C2CCOCC2)[C@@H](CO)O1` was tested, and the relative growth was inactive: 1.01. `O=C(CN1CCOCC1)N[C@@H]1CC[C@H](CCNC(=O)Nc2cc(F)ccc2F)O[C@@H]1CO` was tested, and the relative growth was inactive: 0.966. `CSCC[C@H](NC(=O)[C@H](CCC(=O)O)NC(=O)[C@H](CCC(=O)O)NC(C)=O)C(=O)N[C@@H](CCC(N)=O)C(=O)N[C@@H](CCCNC(=N)N)C(=O)N[C@@H](CCCNC(=N)N)C(N)=O` was tested, and the relative growth was inactive: 1.03.
